# Measurements taken from the supplement of paper PMC8728848.
# This is one part of the list.
# B1: STA (Solanum tuberosum) (protein)
# chain: NASAPLPYPQCGLKKGGGKCIKTGECCSIWGWCGTTSDYCAPGYCQKQCPGPYPQGRCGWQANGKSCPTGTGQCCSNAGWCGTTSDYCAPNNCQSQCKLPPPPPSPPPPPPSPPPPSPPPPPPSPPPPSPSPPPPPPSPPPPSPPPPSPPPPSPPPPPSPSPPPPPPSPPPPPPPLPYPQCGMKKGGGKCIKTGECCSIWGWCGTTSKYCSPGYCQMQCPDPYPEGRCGWQANGKSCPTGTGQCCSNAGWCGTTSAYCAPVNCQAQCNTTTLTSPIKNRMRGIESFMLNVV
# What was measured:
# Assay in all cases: glycan array binding signal (z-score within array); higher = stronger binding
# Settings in all cases: glycan notation: IUPAC condensed, linker removed
# [1] = molecular target: Man(a1-2)Man(a1-2)Man(a1-6)[Man(a1-3)]Man
# Outline: (§1)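 The binding signal is a Z-score computed within each array. Data were drawn from 3228 arrays in the Consortium for Functional Glycomics database, restricted to those with a known protein sequence. Scores were averaged over arrays of the same protein sequence at different concentrations or buffers, and over linkers, and negative values can be taken as non-binding.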
# Man(a1-2)Man(a1-3)Man = molecular target: Man(a1-2)Man(a1-3)Man
# Outline: as §1
# [2] = molecular target: Man(a1-2)Man(a1-3)[Man(a1-2)Man(a1-6)]Man
# Outline: as §1
# [3] = molecular target: Man(a1-2)Man(a1-3)[Man(a1-3)[Man(a1-6)]Man(a1-6)]Man(b1-4)GlcNAc(b1-4)GlcNAc
# Outline: as §1
# [4] = molecular target: Man(a1-2)Man(a1-3)[Man(a1-6)]Man(a1-6)[Man(a1-2)Man(a1-3)]Man(b1-4)GlcNAc(b1-4)GlcNAc
# Outline: as §1
# Man(a1-3)[Man(a1-6)]Man = molecular target: Man(a1-3)[Man(a1-6)]Man
# Outline: as §1
# [5] = molecular target: Man(a1-3)[Man(a1-6)]Man(a1-6)[Man(a1-3)]Man(b1-4)GlcNAc(b1-4)GlcNAc
# Outline: as §1
# [6] = molecular target: Man(a1-3)[Man(a1-6)]Man(b1-4)GlcNAc(b1-4)GlcNAc
# Outline: as §1
# Man(b1-4)GlcNAc = molecular target: Man(b1-4)GlcNAc
# Outline: as §1
# Neu5Ac(a2-3)Gal = molecular target: Neu5Ac(a2-3)Gal
# Outline: as §1
# [7] = molecular target: Neu5Ac(a2-3)Gal(b1-3)GalNAc
# Outline: as §1
# [8] = molecular target: Neu5Ac(a2-3)Gal(b1-3)GalNAc(b1-3)Gal(a1-4)Gal(b1-4)Glc
# Outline: as §1
# [9] = molecular target: Neu5Ac(a2-3)Gal(b1-3)GalNAc(b1-4)[Neu5Ac(a2-3)]Gal(b1-4)Glc
# Outline: as §1
# [10] = molecular target: Neu5Ac(a2-3)Gal(b1-3)GalNAc6S
# Outline: as §1
# [11] = molecular target: Neu5Ac(a2-3)Gal(b1-3)GlcNAc
# Outline: as §1
# [12] = molecular target: Neu5Ac(a2-3)Gal(b1-3)GlcNAc(b1-3)Gal(b1-3)GlcNAc
# Outline: as §1
# [13] = molecular target: Neu5Ac(a2-3)Gal(b1-3)GlcNAc(b1-3)Gal(b1-4)GlcNAc
# Outline: as §1
# [14] = molecular target: Neu5Ac(a2-3)Gal(b1-3)GlcNAc6S
# Outline: as §1
# [15] = molecular target: Neu5Ac(a2-3)Gal(b1-3)[Fuc(a1-4)]GlcNAc
# Outline: as §1
# [16] = molecular target: Neu5Ac(a2-3)Gal(b1-3)[Fuc(a1-4)]GlcNAc(b1-3)Gal(b1-4)[Fuc(a1-3)]GlcNAc
# Outline: as §1
# [17] = molecular target: Neu5Ac(a2-3)Gal(b1-3)[Neu5Ac(a2-3)Gal(b1-4)]GlcNAc
# Outline: as §1
# [18] = molecular target: Neu5Ac(a2-3)Gal(b1-3)[Neu5Ac(a2-6)]GalNAc
# Outline: as §1
# Neu5Ac(a2-3)Gal(b1-4)Glc = molecular target: Neu5Ac(a2-3)Gal(b1-4)Glc
# Outline: as §1
# [19] = molecular target: Neu5Ac(a2-3)Gal(b1-4)GlcNAc
# Outline: as §1
# [20] = molecular target: Neu5Ac(a2-3)Gal(b1-4)GlcNAc(b1-3)Gal(b1-3)GlcNAc
# Outline: as §1
# [21] = molecular target: Neu5Ac(a2-3)Gal(b1-4)GlcNAc(b1-3)Gal(b1-4)GlcNAc
# Outline: as §1
# [22] = molecular target: Neu5Ac(a2-3)Gal(b1-4)GlcNAc(b1-3)Gal(b1-4)GlcNAc(b1-3)Gal(b1-4)GlcNAc
# Outline: as §1
# [23] = molecular target: Neu5Ac(a2-3)Gal(b1-4)GlcNAc(b1-3)Gal(b1-4)[Fuc(a1-3)]GlcNAc
# Outline: as §1
# [24] = molecular target: Neu5Ac(a2-3)Gal(b1-4)GlcNAc(b1-6)[Gal(b1-3)]GalNAc
# Outline: as §1
# [25] = molecular target: Neu5Ac(a2-3)Gal(b1-4)GlcNAc6S
# Outline: as §1
# [26] = molecular target: Neu5Ac(a2-3)Gal(b1-4)[Fuc(a1-3)]GlcNAc
# Outline: as §1
# [27] = molecular target: Neu5Ac(a2-3)Gal(b1-4)[Fuc(a1-3)]GlcNAc(b1-3)Gal
# Outline: as §1
# [28] = molecular target: Neu5Ac(a2-3)Gal(b1-4)[Fuc(a1-3)]GlcNAc(b1-3)Gal(b1-4)GlcNAc
# Outline: as §1
# [29] = molecular target: Neu5Ac(a2-3)Gal(b1-4)[Fuc(a1-3)]GlcNAc(b1-3)Gal(b1-4)[Fuc(a1-3)]GlcNAc(b1-3)Gal(b1-4)[Fuc(a1-3)]GlcNAc
# Outline: as §1
# [30] = molecular target: Neu5Ac(a2-3)Gal(b1-4)[Fuc(a1-3)]GlcNAc6S
# Outline: as §1
# [31] = molecular target: Neu5Ac(a2-3)Gal6S(b1-4)GlcNAc
# Outline: as §1
# [32] = molecular target: Neu5Ac(a2-3)Gal6S(b1-4)[Fuc(a1-3)]GlcNAc
# Outline: as §1
# Neu5Ac(a2-3)GalNAc = molecular target: Neu5Ac(a2-3)GalNAc
# Outline: as §1
binder,measurement,setting,value
B1,glycan array binding signal (z-score),[1],-0.506
same,glycan array binding signal (z-score),Man(a1-2)Man(a1-3)Man,-0.503
same,glycan array binding signal (z-score),[2],-0.511
same,glycan array binding signal (z-score),[3],0.407
same,glycan array binding signal (z-score),[4],0.29
same,glycan array binding signal (z-score),Man(a1-3)[Man(a1-6)]Man,-0.506
same,glycan array binding signal (z-score),[5],0.27
same,glycan array binding signal (z-score),[6],0.407
same,glycan array binding signal (z-score),Man(b1-4)GlcNAc,-0.504
same,glycan array binding signal (z-score),Neu5Ac(a2-3)Gal,-0.507
same,glycan array binding signal (z-score),[7],-0.512
same,glycan array binding signal (z-score),[8],-0.501
same,glycan array binding signal (z-score),[9],-0.502
same,glycan array binding signal (z-score),[10],-0.5
same,glycan array binding signal (z-score),[11],-0.502
same,glycan array binding signal (z-score),[12],-0.51
same,glycan array binding signal (z-score),[13],0.185
same,glycan array binding signal (z-score),[14],-0.492
same,glycan array binding signal (z-score),[15],-0.518
same,glycan array binding signal (z-score),[16],-0.408
same,glycan array binding signal (z-score),[17],-0.505
same,glycan array binding signal (z-score),[18],-0.513
same,glycan array binding signal (z-score),Neu5Ac(a2-3)Gal(b1-4)Glc,-0.506
same,glycan array binding signal (z-score),[19],1.74
same,glycan array binding signal (z-score),[20],-0.49
same,glycan array binding signal (z-score),[21],1.03
same,glycan array binding signal (z-score),[22],1.29
same,glycan array binding signal (z-score),[23],-0.507
same,glycan array binding signal (z-score),[24],-0.504
same,glycan array binding signal (z-score),[25],3.23
same,glycan array binding signal (z-score),[26],-0.503
same,glycan array binding signal (z-score),[27],-0.509
same,glycan array binding signal (z-score),[28],-0.144
same,glycan array binding signal (z-score),[29],-0.505
same,glycan array binding signal (z-score),[30],-0.49
same,glycan array binding signal (z-score),[31],-0.493
same,glycan array binding signal (z-score),[32],-0.495
same,glycan array binding signal (z-score),Neu5Ac(a2-3)GalNAc,-0.505
